Assay results: PubChem BioAssay AID1159614 (National Center for Advancing Translational Sciences (NCATS), 2016)
About 65 (0.1%) of roughly 45,000 compounds were called active. Calls follow the shape of the dose curve; as a rule, active = well fitted activation curve with a large enough effect; inconclusive = small, poorly fitted or top-dose-only effect; inactive = no such curve, though single readings can be large or run the other way. Some of the results follow.

molecular target: Galactocerebrosidase (Homo sapiens) (UniProt P54803); assay: A Novel Cell-Based Assay to Identify Small Molecules for B -Galactocerebrosidase; conditions: 145M-Twi-hGALC-G270D cells (Twitcher mouse brain line with human GALC G270D), HMU-beta-Gal fluorescence, 48 h; series mostly up to 57.5 µM; activation: at the top concentration; also: 0% is about no effect; nearly all actives have a fitted effect of over 65% in size
Sequence of UniProt P54803 (P54803 whole entry, looked up): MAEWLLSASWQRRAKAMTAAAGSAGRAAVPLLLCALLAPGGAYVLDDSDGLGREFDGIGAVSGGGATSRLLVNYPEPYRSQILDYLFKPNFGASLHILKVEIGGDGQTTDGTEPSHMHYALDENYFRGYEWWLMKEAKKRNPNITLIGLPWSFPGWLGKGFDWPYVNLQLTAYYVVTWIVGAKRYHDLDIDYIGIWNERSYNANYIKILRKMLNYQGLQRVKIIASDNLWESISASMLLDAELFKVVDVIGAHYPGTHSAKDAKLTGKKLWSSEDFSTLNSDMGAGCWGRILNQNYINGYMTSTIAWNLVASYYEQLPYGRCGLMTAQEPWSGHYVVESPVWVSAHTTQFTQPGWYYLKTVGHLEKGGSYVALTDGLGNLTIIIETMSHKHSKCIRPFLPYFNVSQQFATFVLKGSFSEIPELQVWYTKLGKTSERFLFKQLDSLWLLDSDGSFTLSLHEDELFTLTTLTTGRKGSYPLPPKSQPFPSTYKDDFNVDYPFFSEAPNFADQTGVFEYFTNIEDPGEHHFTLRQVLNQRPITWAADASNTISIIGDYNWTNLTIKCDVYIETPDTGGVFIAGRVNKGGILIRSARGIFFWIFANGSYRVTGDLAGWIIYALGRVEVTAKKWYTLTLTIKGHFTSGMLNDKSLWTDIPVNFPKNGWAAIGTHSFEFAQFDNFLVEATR
Procedure, shortened: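 Live 145M-Twi cells (Twitcher mouse brain-derived, GALC-null) stably expressing human GALC-G270D, with a wild-type GALC line, were compound-treated. Residual GALC activity was then read as fluorescence from 0.1 mM final HMU-β-gal at pH 5.2; higher signal means activation.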

activation, inactive:
COc1ccc2c(c1)c(CC(=O)O)c(C)n2C(=O)c1ccc(Cl)cc1 -11.8%, Cc1cccc(OCC(=O)OCc2cc(=O)n3nc(C4CCCCC4)sc3n2)c1 -19.2%, CCOC(=O)C(CC)n1nc(C)n2c(cc3occc32)c1=O (stereo unspecified) -7.12%, COc1ccc(C(=O)COC(=O)c2cccc(NC(=O)c3ccc(OC)c(OC)c3)c2)cc1 -16.4%, Nc1nc2ccc(OC(F)(F)F)cc2s1 -13.5%, Oc1cc(O)c2c(c1)O[C@H](c1ccc(O)c(O)c1)[C@H](O)C2 -30.8%, O=C(NC1CCCCCC1)C1CCN(C(=O)N2CCOc3ccccc32)CC1 -6.57%, Cc1ccc(S(=O)(=O)NCC(c2ccc(N(C)C)cc2)N2CCOCC2)cc1 (stereo unspecified) -18.7%, CN1CCC(=C2c3ccccc3CCc3cccnc32)CC1 -2.56%, COc1ccc(C(=O)c2cn(Cc3ccc(F)cc3)c3ccc(C)cc3c2=O)cc1 -12.3%, Cc1csc2nc(-c3cccc(NC(=O)c4ccccc4Cl)c3)cn12 -9.06%, Cc1ccc(-c2nc3ccccn3c2Nc2ccc3c(c2)OCO3)cc1 -14.3%, COc1ccnc2c1CCCCC2S(=O)c1nc2ccccc2[nH]1 (stereo unspecified) -18.7%, COc1cc(/C=C(\C#N)c2nc3ccccc3n2C)cc(OC)c1OC -17.1%, Cc1ccc(NC(=O)c2cc(S(=O)(=O)N3CCCC(C)C3)cn2C)c(Br)c1 (stereo unspecified) 17.8%, Cc1nc(C)c(-c2ccc(SCC(=O)Nc3ccc(F)c(F)c3)nn2)s1 5.42%, COc1cc(OC)c(N(C)C(=O)Cn2ncc3c([nH]c4ccccc43)c2=O)cc1Cl -7.25%, O=c1c2cc3c(cc2nc2sc(Nc4ccc(F)c(Cl)c4)nn12)OCO3 -12.4%, CCN1CCN(c2oc(/C=C/c3ccccc3OC)nc2C#N)CC1 -9.79%, Cn1c(=O)c2c(-c3cccc(Br)c3)n(CCO)cc2n(C)c1=O -16%, CCc1ccc(CN(Cc2cn[nH]c2-c2ccc(OC)cc2)C(=O)Nc2ccc(C)c(F)c2)cc1 -9.78%, CC1CCN(CCCNC(=O)c2cc(Sc3ccc(F)cc3)nc3ccccc23)CC1 -14.3%, Cc1ccc(-n2c(=O)c3ccc(C(=O)NCc4ccccc4Cl)cc3n(Cc3ccccc3F)c2=O)cc1 7.17%, CCOC(=O)c1c(-c2ccc(C)cc2)csc1NC(=O)c1nc(SCC)ncc1Cl -17.2%, COc1cccc(NS(=O)(=O)c2ccc3[nH]cc(C(=O)N4CCCCCC4)c(=O)c3c2)c1 8.08%, COc1ccc(Cn2c(=O)c3cccnc3n(Cc3cccc(OC)c3)c2=O)cc1 -10.3%, Cc1ccc(NC(=O)c2oc3ccccc3c2NC(=O)c2ccccc2C)cc1 -8.08%, O=C(NC1CC(=O)N(c2cccc(F)c2)C1)C1CC1 (stereo unspecified) 4.48%, CSc1nnc(NC(=O)Cc2coc3cc(C)ccc23)s1 11.6%, Nc1cccc(-c2cn3ccsc3n2)c1 -6.34%, CCCCC(CC)CNC(=O)C1CCN(S(=O)(=O)c2cccc3nsnc23)CC1 (stereo unspecified) -16.4%, Cc1ccc(C)c(N2CCN(CCCNC(=O)Cn3ncc4c5ccccc5n(C)c4c3=O)CC2)c1 -6.72%, O=S(=O)(c1ccccc1)c1nc(-c2cccs2)oc1SCc1ccccc1F -4.13%, Cc1ccccc1NC(=O)CCn1cnc2onc(-c3ccc(F)cc3)c2c1=O 16%, CCC(C)(C)C1CCc2c(sc(NC(=O)C3c4ccccc4Oc4ccccc43)c2C(N)=O)C1 (stereo unspecified) -15.6%, N#Cc1nc(-c2ccc(COc3ccc(Cl)cc3)o2)oc1N1CCN(c2ccccc2)CC1 -15.8%, Cc1ccc(NS(=O)(=O)c2c(C(=O)N3CCC(C)CC3)c(C)n(C)c2C)cc1Cl -36.6%, CCOc1ccc(NC(=O)CCn2cnc3onc(-c4ccc(F)cc4)c3c2=O)cc1 -13.8%, Cc1ccc(CN2CCSc3ccc(C(=O)N4CCN(c5cc(C)ccc5C)CC4)cc32)cc1 -16.8%, OC[C@H]1O[C@H](O[C@]2(CCl)O[C@H](CCl)[C@@H](O)[C@@H]2O)[C@H](O)[C@@H](O)[C@H]1Cl -15.3%, O=C(CSc1nc2c(oc3ccccc32)c(=O)n1-c1ccccc1F)Nc1ccccc1 -9.26%, CCOC(=O)c1c(S(=O)(=O)N2CCCC(C(=O)N3CCN(c4cccc(C)c4C)CC3)C2)c(C)n(C)c1C (stereo unspecified) -17.1%, O=C(CN1C(=O)COc2ccc(S(=O)(=O)N3CCOCC3)cc21)NCc1ccc(F)cc1 -19.2%, CCOc1cc(S(=O)(=O)n2ccnc2C(C)C)ccc1Cl -14.8%, Cc1ccc(Nc2c3c(nc4nncn24)CCC3)cc1C 0.465%, CC(C)CN1CCc2nc(N3CCN(C)CC3)ncc2C1 -7.47%, Cn1c(=O)cc(SCC(=O)N2CCN(c3ccc(F)cc3)CC2)c2ccc(Cl)cc21 -21.1%, CC(=O)N1CCc2cc(Br)cc(S(=O)(=O)N3CCC(C(=O)N(C)c4cc(C)ccc4C)CC3)c21 -7.54%, COc1ccc(-c2cc3ccc(O)c(CN4CCOCC4)c3oc2=O)cc1 -23.5%, Cc1cccc(NC(=O)CSc2nc(-c3ccco3)nc3cc(=O)[nH]n23)c1 -9.42%, COc1cc(NC(=O)c2ccccc2)ccc1NC(=O)c1cc2ccccc2o1 -18%, Cc1cccc(NC(=O)c2nc(S(C)(=O)=O)ncc2Cl)c1 -31.3%, CCn1cc(C(=O)N2CCN(c3ccccc3F)CC2)c(=O)c2cc(S(=O)(=O)N(C)C3CCCCC3)ccc21 0.824%, CCOC(=O)c1c(C)oc2nc(C)nc(NCc3ccc(Cl)cc3)c12 -16.1%, CCc1ccc(NC(=O)C2CCN(S(=O)(=O)c3ccc4[nH]c5c(c4c3)CCCCC5)CC2)cc1 -1.72%, O=C(CCn1c(=O)c2ccccc2n(Cc2ccc(F)cc2Cl)c1=O)NCc1ccc2c(c1)OCO2 -6.31%, COC(=O)c1c(SC)nc2ccccc2c1OCc1ccccc1C -12.4%, COc1ccc(-c2ccc3c(N)c(C(=O)NCc4ccc(Cl)cc4)sc3n2)cc1 -21%, Cc1ccc(CNC(=O)C2CCN(c3nc4ccccc4n(C)c3=O)CC2)cc1 -4.2%, CCOC(=O)CSc1nc2c(sc3ccccc32)c(=O)n1CCc1ccccc1 -14.7%, O=[N+]([O-])c1cc(-c2nc(-c3ccccc3)no2)ccc1N1CCN(c2ccccc2)CC1 -7.83%, Cn1cc(S(=O)(=O)N2CCCCCC2)cc1C(=O)N1CCN(c2cccc(Cl)c2)CC1 -42.4%, CCOC(=O)c1noc2ncnc(Nc3ccc(F)cc3F)c12 -5.57%, Cc1cccc(C)c1NC(=O)Cn1c(=O)n(CC2CCC(C(=O)NCCc3ccccc3)CC2)c(=O)c2ccccc21 (stereo unspecified) 4.22%, CCOC(=O)C1CCN(C(=O)C2CCN(C3=NS(=O)(=O)C(c4ccc(C)cc4)=C3CC)CC2)CC1 -14.9%, Cc1ccc(NC(=O)Cn2nnc(-c3nc(-c4ccncc4)no3)c2N)cc1 -8.84%, Cc1ccc(C(=O)O)cc1Nc1nc2ccccc2n2nnnc12 1.11%, Cc1ccc(Cl)cc1N1CCN(C(=O)CCC(=O)Nc2ccc3nc(N4CCC(C)CC4)cc(C)c3c2)CC1 -2.86%, CCOc1ccc2nc(C)cc(Nc3ccccc3OCC)c2c1 -18.2%, CCCOc1ccc(CNC(=O)C(CC)n2nc(C)c3sc4ccccc4c3c2=O)cc1 (stereo unspecified) -1.31%, COc1ccc(CCNC(=O)C2(c3cccs3)CCOCC2)cc1OC -8.69%, COc1ccc2[nH]c(C)c(CCNS(=O)(=O)c3cc(F)ccc3OC)c2c1 -7.47%, COc1cc(OC)cc(C(=O)Nc2ccccc2-c2nc3ccccc3s2)c1 -12.6%, CN(C)c1ccc(C(CNC(=O)c2ccc(C(C)(C)C)cc2)N2CCOCC2)cc1 (stereo unspecified) -14.4%, CCCOc1cccc(C(=O)Nc2cccc(NC(=O)c3ccc(C(C)(C)C)cc3)c2)c1 -18.6%, COc1ccc(-c2cc(C(F)(F)F)n3nc(C(=O)Nc4cc(Cl)cc(Cl)c4)cc3n2)cc1 -17.3%, COc1cc(-c2ccno2)ccc1S(=O)(=O)N1CCN(c2ccc(C(C)=O)cc2)CC1 -8.82%, CCCCC(=O)Nc1ccccc1C(=O)OCc1cc(=O)n2nc(C3CCCCC3)sc2n1 -4.34%, CCOc1ccc(OC(=O)c2cn(-c3ccc(C)cc3)c(=O)c3ccccc23)cc1 -10.7%, COc1ccc(-c2nc3c4ccccc4n(CC(=O)Nc4cc(F)ccc4F)c(=O)n3n2)cc1 -13.5%, CCn1cc(S(=O)(=O)c2cc(C)cc(C)c2)c(=O)c2cc(F)c(N3CCCC3)cc21 -7.9%, COc1ccc(N2CCN(S(=O)(=O)CCNC(=O)Cc3ccc(Cl)cc3)CC2)cc1 -10.9%, CCOc1ccc(CCNC(=O)c2nnc(Cc3cc(OC)c(OC)c(OC)c3)o2)cc1OCC -7.38%, CCOC(=O)c1c(NC(=O)c2nc(SC(C)C)ncc2Cl)sc2c1CCCC2 -8.67%, O=c1cc(N2CCN(c3ccc(F)cc3)CC2)[nH]c(=O)n1-c1ccc(Br)cc1 -17.5%, Cn1c(SCc2ccc(C(F)(F)F)cc2)nc2c([nH]c3ccccc32)c1=O -12.8%, Cc1ccccc1Cn1c(=O)n(Cc2ccc(Cl)cc2)c(=O)c2cccnc21 13.2%, COc1cc(Cl)c(C)cc1NC(=O)c1sc2nc3n(c(=O)c2c1C)CCCCC3 -6.75%, COc1ccc(OC)c(NC(=O)CSC2=Nc3ccccc3C3=NC(CC(=O)NCc4ccc5c(c4)OCO5)C(=O)N23)c1 (stereo unspecified) -2.83%, CC(=O)c1c(C)oc2c(Cl)cc(NS(=O)(=O)c3ccc(Cl)cc3)cc12 -21.8%, CN(C)c1ccc(C(CNS(=O)(=O)c2ccccc2)N2CCc3ccccc32)cc1 (stereo unspecified) -16%, COc1cc(C(=O)NCC(c2cccnc2)N2CCc3ccccc32)cc(OC)c1OC (stereo unspecified) -8.06%, COc1cc(NC(=O)N2CCC(CN3CCCC3)CC2)cc(OC)c1OC -11.8%, O=C(CSc1nccn1-c1ccc(F)cc1)Nc1ccc(OC(F)(F)F)cc1 -5.84%, CCOC(=O)c1c(-c2ccc(Br)cc2)csc1NC(=O)c1ccccc1F 7.35%, CCN(CC)C(=O)Cn1c(=O)n(Cc2ccc(C(=O)NCc3ccccc3Cl)cc2)c(=O)c2ccccc21 13.2%
